This is one part of the list.
B1: chr10:87746157:87746259:+|3pUTR|ENSG00000198682|unk|FALSE|unique (ssRNA)
RNA: GGGAGUUCUACAGUCCGACGAUCAACUGAAGACCAAAUCUUAGCAGGUAAAAGCAAUAUUCUUAUACAUUUCAUAAUAAAAUUAGCUCUAUGUAUUUUCUACUGCACCUGAGCAGGCAGGUCCCAGAUUUCUUAAGGCUUUGUCAACAGAGGAUUGAGCAUCA
B2: chr3:25618756:25618858:-|CDS|ENSG00000077097|unk|FALSE|unique (ssRNA)
RNA: GGGAGUUCUACAGUCCGACGAUCUAUAUAAGUUAAAAUACCAGUACAGAUCUAUAUGAUCUGCAAAGUAUAUGUGUUUUGCUUAGGUACUUUUUGAUCAUAUGGGAUGUCUGAAGAAAUAUGAAACUGUGCAAGACAUUCUGACAACAGAGGAUUGAGCAUCA
B3: chr3:48857559:48857660:-|3pUTR|ENSG00000178537|unk|total|mutant (ssRNA)
RNA: GGGAGUUCUACAGUCCGACGAUCGGCUGAAGGCUGCUCAAGUUCACUUCUGGAUGCUGGAAGCUGUCGUUGAGGAGAAGGAGCCGUAAGCAGAACUAAGCAGUCUUGGAGGGCAAGGGGAGGGGAAUGGUGAGAUCCGAGCCCCAACAGAGGAUUGAGCAUCA
B4: chr19:18929200:18929442:-|three_prime_utr|ENSG00000051128|control|control|control (ssRNA)
RNA: GGGAGUUCUACAGUCCGACGAUCCGGGGCUGGUUUUCUAUGAACGAUUCCGGCCUGGGAUGCGGGCCAGGCUGCAGGCGGCAUAGUUGGGCCCAUUCGUCCUGGAAAGGGACUGGGGGGUCCCAACUUAGCCCUGGGUGGGCCCAACAGAGGAUUGAGCAUCA
B5: chr17:42200006:42200107:-|3pUTR|ENSG00000173757|unk|FALSE|unique (ssRNA)
RNA: GGGAGUUCUACAGUCCGACGAUCAAGCUGCCGUUUGCCUUGGCUUGGUUUCAUACACUGAUUUAUUUUUCUAUGCCAGGCAGUAGAGUCUCUCUGCCUCUGAGGAGCAGGCUACCCGCAUCCCACUCAGCCCCUCCCUACCCCCAACAGAGGAUUGAGCAUCA
B6: chr1:201892154:201892255:+|3pUTR|ENSG00000198892|msi1|FALSE|unique (ssRNA)
RNA: GGGAGUUCUACAGUCCGACGAUCUGUUUGUCCCCUCUGGGCUGGGGUGGGGGGAGGGAGGAGGUUCCGUCAGCAGCUGGCAGUAGCCCUCCUCUCUGGCUGCCCCACUGGCCACAUCUCUGGCCUGCUAGAUUAAAGCUGUAACAACAGAGGAUUGAGCAUCA
B7: chr10:89774496:89774597:+|3pUTR|ENSG00000138182|msi1|FALSE|bound_elsewhere (ssRNA)
RNA: GGGAGUUCUACAGUCCGACGAUCAAGAUCUCAAGUCUUUAAUUAGAAUGUCUCACUUAUUUUGUAAACAUUUUGUGGGUACAUAGUACAUGUAUAUAUUUACGGGGUAUGUGAGAUGUUUUGACACAGGCAUGCAAUGUGAAACAACAGAGGAUUGAGCAUCA
B8: chr8:100287602:100287712:-|CDS|ENSG00000034677|unk|total|mutant (ssRNA)
RNA: GGGAGUUCUACAGUCCGACGAUCUGUGUGGAUUGCUUACGACAAUAUUUAAGGACCGAAAUCUCUGAAAGCAGAGUUAAUAUCCGUUGCCCAGAAUGUACUGAACGGUUUAAUCCCCAUGAUAUUCGCUUGAUAUUAAGUGAUCAACAGAGGAUUGAGCAUCA
B9: chr10:131940083:131940120:+|CDS_3pUTR|ENSG00000175470|msi1_unk|total|mutant (ssRNA)
RNA: GGGAGUUCUACAGUCCGACGAUCAUAUAAUGUUUACAGCACCUUUCAAAGUCAUGAACCGGAGUUUGACUAUUUGAAAAGUCCCGAAAUUGAGGAAAAAAUUAAUAAAAUCCGGUGGUUACCACAACAGAAUGCUGCUCAUUUCAACAGAGGAUUGAGCAUCA
B10: chr17:4937608:4937709:-|3pUTR|ENSG00000108528|msi1|FALSE|unique (ssRNA)
RNA: GGGAGUUCUACAGUCCGACGAUCAAGCGUCUCUUCCUCAGUGGCUGAAGCGGCCGGGGGCUCCCACUCGCCUGCUGCGCCUAUAGCCACUGCGCCCUGGGGGCCUGGGCUCUGCUGCCCUGGACCCCUCUAUUUAUUUCCCUUCAACAGAGGAUUGAGCAUCA
B11: ENSG00000107951:stop:overlap|stop_codon|ENSG00000107951|stop_codon|NA|stop_codon (ssRNA)
RNA: GGGAGUUCUACAGUCCGACGAUCUGCCACGUUCAAACAAGCAGCUUUUUGAAUUACUUUGUUAUGCAGAAAGUGUAAGUUUUUAGGUGUACCUCAACUUUUAGAACUAUGUAUUUUUUUAUGAACAAUAAAGAUUCCUGUAAACAACAGAGGAUUGAGCAUCA
B12: chr2:25232207:25232317:-|3pUTR|ENSG00000119772|unk|total|mutant (ssRNA)
RNA: GGGAGUUCUACAGUCCGACGAUCGGUGAGGGCCCGACGGGCAGGUGCUUGCCUGGGCCGAUGGGGUGCCGAUAUGUGGCAUACCGAGAUAUAUAUUUUAUAAUGGGAGGGGGGAUGGCACCUCCUGGGACUGGCCGAGCUGGGCAACAGAGGAUUGAGCAUCA
B13: chr16:8795179:8795951:-|three_prime_utr|ENSG00000184857|control|control|control (ssRNA)
RNA: GGGAGUUCUACAGUCCGACGAUCCCUGGGAACAUGUGUUUUGUGGUGAAUAAAUUCACAAGGCAAGAGCUGGUGUACAGGUUUAGGAAAAAGGCUCUAAGCAAGUUCUUACAGCACUUGUUUGUGACAUUCAGUCAGAUAAUGCAACAGAGGAUUGAGCAUCA
B14: ENSG00000070961:be:win_4601|3pUTR|ENSG00000070961|bound_else_gene|NA|bound_elsewhere_windowed (ssRNA)
RNA: GGGAGUUCUACAGUCCGACGAUCUCAGACUAUCAAACUACAAGAGAACCUUAGUCUUUUUUGUUUUUGUCUAAACAUGUUAGUUUAGUGAUGUCUUGGUGAACUGUGAGUGAACUGUAUUGAUUUUUCUAAUCUUUAGAGACCCAACAGAGGAUUGAGCAUCA
B15: ENSG00000198589:be:win_6901|CDS|ENSG00000198589|bound_else_gene|NA|bound_elsewhere_windowed (ssRNA)
RNA: GGGAGUUCUACAGUCCGACGAUCCUUGCAUGGCUGCUAAGAAUAGAACCCUUUACAACUUAUUUCCUAAAUUUGCAAGGAGGCAAAUUUGAUCAUGCAGAUCGAACUUUUUCAUCAAUUUCCAGAGCUUGGCGAAACAGUCAGCAACAGAGGAUUGAGCAUCA
B16: ENSG00000070961:be:win_4751|3pUTR|ENSG00000070961|bound_else_gene|NA|bound_elsewhere_windowed (ssRNA)
RNA: GGGAGUUCUACAGUCCGACGAUCGAAAAAGGUUAAUAAGUAGAAGCAUACAUGUUUUCCUUUUGUUUUUGAAACUUGUUUGUAAACAUAAAUAAAUAUGCCCUUUUAUUAAAUAAAUUCAUGGCAAUGUUUUUUUAAAAGACACAACAGAGGAUUGAGCAUCA
B17: ENSG00000107863:be:win_301|CDS|ENSG00000107863|bound_else_gene|NA|bound_elsewhere_windowed (ssRNA)
RNA: GGGAGUUCUACAGUCCGACGAUCACCAUAUUUGUUAAGCAAGUUAAAGAAGGAGGACCUGCUUUUGAAGCUGGAUUAUGUACAGGUGACCGAAUUAUAAAAGUCAAUGGAGAAAGUGUUAUUGGCAAAACCUAUUCCCAAGUACAACAGAGGAUUGAGCAUCA
B18: ENSG00000107863:be:win_3451|CDS|ENSG00000107863|bound_else_gene|NA|bound_elsewhere_windowed (ssRNA)
RNA: GGGAGUUCUACAGUCCGACGAUCGACUGCCCACCAGCUCAUACUAAUCGGUAUAUUCCAUUAAUAGUUGACAUAUGUUGCAAAUUAGUUGAAGAAAGAGGUCUUGAAUAUACAGGUAUUUAUAGAGUUCCUGGAAAUAAUGCACAACAGAGGAUUGAGCAUCA
B19: chrX:46853785:46853899:+|CDS|ENSG00000102218|unk|total|mutant (ssRNA)
RNA: GGGAGUUCUACAGUCCGACGAUCCAUCAUUGAGUCUUCCUCAAAUAUCAAAUUUGGAUGUUUUCAAUGGUACUAUCCUGAAUCCGCUUUCCAGUUCAAAGAUGCAGGGCUAAGUAUCUUCAACAAUACAUGGAGUAACAUUCACAACAGAGGAUUGAGCAUCA
B20: chr17:30468017:30468118:+|3pUTR|ENSG00000108582|unk|FALSE|unique (ssRNA)
RNA: GGGAGUUCUACAGUCCGACGAUCGCUAAAAUUUUGGGGAUAUGAUUUGGGUCUUUGAUUAAUGUCAGCUGAACUUGGAUUUCUAGUUCAUGAAGAAAUCUCUCCCAAUACCCAUUUAUCCUAUUUUUAGCAAUAAUUCGUUAACAACAGAGGAUUGAGCAUCA
B21: chr2:110123602:110123703:-|3pUTR|ENSG00000144061|unk|FALSE|unique (ssRNA)
RNA: GGGAGUUCUACAGUCCGACGAUCAUCCUCCACGAUUACGUGAAUAAAAUGAUGGAACCAAAAAUCACUGUCACUUUACAACUUAGGUUUUACUCUUUUCUUUCUACAGACCAUAUUUUUAAAGAAAUGUUUAUACAAUAAUUUCAACAGAGGAUUGAGCAUCA
B22: chr12:48147896:48148005:-|3pUTR|ENSG00000177981|unk|FALSE|unique (ssRNA)
RNA: GGGAGUUCUACAGUCCGACGAUCCUGCUUUAGUGAACGAUACUCUUUCAUUUUUCUAAAUUAGAUCAAGUUGUUAUUGAUUUUAGAUGACUUGUAUGCAAAUUUGAAAAACUUUUUUUUUUAAAGCUGAUUGGGAACUACAAACAACAGAGGAUUGAGCAUCA

biological target: MSI1 full-length (mouse, UniProt Q61474 1-362); experiment: nsRBNS (natural sequence RNA bind-n-seq); RBNS binding buffer (assumed for nsRBNS): 25 mM Tris pH 7.5, 150 mM KCl, 3 mM MgCl2, 0.01% Triton X-100, 500 ug/ml BSA, 20 U/ml SUPERase-In, 4 C; UNK is unkempt and MSI1 is Musashi-1; names of the RNAs are library labels; protein concentration not given here; high values mean tight binding
Sequence of UniProt Q61474 (Q61474 whole entry): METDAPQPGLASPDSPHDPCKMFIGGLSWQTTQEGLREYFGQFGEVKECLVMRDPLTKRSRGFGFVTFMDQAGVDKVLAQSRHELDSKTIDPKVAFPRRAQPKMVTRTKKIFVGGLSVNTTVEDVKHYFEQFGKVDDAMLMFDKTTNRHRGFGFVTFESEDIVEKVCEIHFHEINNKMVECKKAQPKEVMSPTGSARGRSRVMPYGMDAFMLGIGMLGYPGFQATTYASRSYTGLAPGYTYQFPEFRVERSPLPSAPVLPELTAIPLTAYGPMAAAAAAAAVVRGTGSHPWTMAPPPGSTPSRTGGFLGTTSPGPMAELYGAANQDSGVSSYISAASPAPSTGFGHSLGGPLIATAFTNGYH

Binder	binding signal
B1	8.56 enrichment R
B2	0.461 enrichment R
B3	0.595 enrichment R
B4	0.406 enrichment R
B5	0.714 enrichment R
B6	0.871 enrichment R
B7	0.356 enrichment R
B8	0.307 enrichment R
B9	0.429 enrichment R
B10	0.56 enrichment R
B11	0.411 enrichment R
B12	0.592 enrichment R
B13	0.361 enrichment R
B14	3.69 enrichment R
B15	0.556 enrichment R
B16	0.501 enrichment R
B17	0.348 enrichment R
B18	4.54 enrichment R
B19	0.31 enrichment R
B20	0.334 enrichment R
B21	3.82 enrichment R
B22	1.15 enrichment R

From publication PMC12136788
